The whole screen tested about 410,000 compounds, of which about 5,000 (1.2%) were called active. This list was built around the results that the source calls inconclusive (neither active nor inactive); the mix of calls is not that of the screen. The call rests on the fitted dose curve; in most records, active means well fitted inhibition curve with a large enough effect; inconclusive means small, poorly fitted or top-dose-only effect; inactive means no such curve, though single readings can be large or run the other way. Potencies beside an inconclusive call are fits to weak or partial responses and may not hold up.
experiment: qHTS for Inhibitors of TGF-b; conditions: HepG2 CAGA-GFP TGF-b/SMAD3 reporter, GFP fluorescence, 18 h, TGF-beta stimulated, 500 pg/mL final; series mostly up to 46.1 µM; activity, negative = inhibition: at the top concentration; further: nearly all actives have a fitted effect of over 65% in size
Summary of the method: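 Read-out: total well GFP (ex488/em500-530) summed from mean per-cell fluorescence. Cells: HEPG2 CAGA-GFP, 1% FBS DMEM, 18 h at 37 degrees C with 500 pg/mL final TGF-beta. Unstimulated wells served as the full-inhibition control; stimulated DMSO wells = 0%.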
On the % scale 0 is the no-effect control and ±100 the full control effect; potency means the concentration at half of the fitted maximal effect; tags describe the fitted curve by direction and shape.

Row | Structure (SMILES) | Potency | activity, negative = inhibition
1 | Cc1cc(C)cc(OCC(=O)Nc2nc(-c3ccccn3)cs2)c1 | inconclusive: 35.5 µM [inhibitor, single point] | –
2 | CN(CCc1ccccc1)C(=O)c1ccc(NC(=O)Cc2cccc(NC(=O)C3CCN(C(=O)CCc4ccccc4)CC3)c2)cc1 | inconclusive: 12.6 µM [inhibitor, single point] | –
3 | O=C(CSc1ccc(-c2ccco2)nn1)c1ccccc1 | – | inactive: 0.417%
4 | Cc1cc(C)c2cc(C(=O)N(C)C3CCN(C)CC3)[nH]c2c1 | – | inactive: -2.05%
5 | CSc1ncnc2c1cnn2-c1ccc(C)cc1C | inconclusive: 2.82 µM [inhibitor, partial curve, poor fit] | –
6 | O=C(OCC(=O)N1CCCC1)c1cc(Cl)ccc1Cl | inconclusive: 0.794 µM [inhibitor, partial curve, poor fit] | –
7 | COC(=O)C1=C(C)N(CC2CC2)C(=NCc2cc(OC)c(OC)c(OC)c2)N[C@H]1c1ccccc1 | – | inactive: 5.58%
8 | Fc1ccc(-c2cc(-c3ccccc3)nc(-n3cccn3)n2)cc1 | inconclusive: 35.5 µM [inhibitor, single point] | –
9 | CCC(Oc1ccccc1)C(=O)Nc1ccc(OCc2cc(=O)n3ccc(C)cc3n2)cc1 (stereo not given) | inconclusive: 5.01 µM [inhibitor, single point] | –
10 | Cc1oc(-c2ccccc2F)nc1CSCC(=O)NCCc1ccccc1 | inconclusive: 10 µM [inhibitor, single point] | –
11 | O=C(Cc1csc(-c2cccc(F)c2)n1)Nc1cccc(S(=O)(=O)NC2=NCCC2)c1 | – | inactive: 7.53%
12 | Cc1ccccc1C=Nc1ccccc1C(N)=O | inconclusive: 0.708 µM [inhibitor, full curve] | –
13 | CC(=O)c1c(C)[nH]c(C(=O)CSc2nnc(-c3ccccc3)n2Cc2ccc3c(c2)OCO3)c1C | – | inactive: -3.79%
14 | CC(C)Cc1nn2c(=O)cc(CSCC(=O)Nc3ccccc3F)nc2s1 | – | inactive: 11.1%
15 | O=C(Cc1cccc(NC(=O)C2CCCN(C(=O)C3CCCCC3)C2)c1)Nc1cccc(C(=O)N2CCCCC2)c1 (stereo not given) | – | inactive: -26.4%
16 | Cc1ccc(C(=O)c2ccccc2C(=O)OCC(=O)Nc2ccc(SC(F)F)cc2)cc1 | inconclusive: 6.31 µM [inhibitor, full curve, poor fit] | –
17 | COc1ccc(NC(=O)C2CC(=O)N=C(N)S2)cc1 (stereo not given) | inconclusive: 35.5 µM [inhibitor, single point] | –
18 | Clc1ccccc1C1Nc2cccc3cccc(c23)N1 | inconclusive: 28.2 µM [inhibitor, single point] | –
19 | O=C(NNC(=S)Nc1ccc(Cl)cc1Cl)c1ccncc1 | inconclusive: 3.98 µM [inhibitor, partial curve, poor fit] | –
20 | CC1(C(=O)NCC2CC2)Cc2c(-c3cccc(C(F)(F)F)c3)ccnc2O1 (stereo not given) | inconclusive: 25.1 µM [inhibitor, single point] | –
21 | CC(C)Oc1cccc(-c2cc(C(=O)N3CCN(S(C)(=O)=O)CC3)c3ccccc3n2)c1 | – | inactive: 24.5%
22 | CC(=O)Nc1ccc(NC(=O)c2cc(-c3ccccc3)nc3ccccc23)cc1 | – | inactive: -11.9%

Row | Structure (SMILES) | Potency | activity, negative = inhibition
23 | O=C(NNC(=O)c1ccccc1O)c1ccc(-c2ccc([N+](=O)[O-])cc2)o1 | inconclusive: 12.6 µM [inhibitor, partial curve, poor fit] | –
24 | CC(C)Oc1ccc(CNC(=O)c2ccccc2NC(=O)c2nsc3ccccc23)cc1 | inconclusive: 35.5 µM [inhibitor, single point] | –
25 | N#CC(C#N)=NNc1ccc2cn[nH]c2c1 | inconclusive: 17.8 µM [inhibitor, partial curve, poor fit] | –
26 | C#CCOc1ccc2ccccc2c1/C=C(/C#N)c1ccc(C(=O)O)cc1 | – | inactive: 1.9%
27 | Cc1cc(NC(=O)c2sccc2C)n(-c2nc3ccccc3[nH]2)n1 | inconclusive: 31.6 µM [inhibitor, single point] | –
28 | Cc1ccc(C(=O)Nc2ccc(N3CCN(C(=O)c4ccco4)CC3)cc2)c(Cl)c1 | inconclusive: 11.2 µM [inhibitor, single point] | –
29 | CC(C)(C)c1ccc(C(=O)Nc2cnccn2)cc1 | – | inactive: 2.5%
30 | CCn1cc(C(=O)N2CCN(c3ccccc3OC)CC2)c(=O)c2cc(S(=O)(=O)N3CCC(C)CC3)ccc21 | inconclusive: 8.91 µM [inhibitor, partial curve, poor fit] | –
31 | Cc1cccc(C(=O)OC(C)C(=O)NC(=O)NC2CCCCC2)c1O (stereo not given) | inconclusive: 17.8 µM [inhibitor, single point] | –
32 | CC(Oc1ccc(Cl)cc1Cl)c1nc(-c2ccc(NC(=O)c3ccco3)cc2)no1 (stereo not given) | – | inactive: 0%
33 | O=C(NC1CC1)c1ccc2c(Cl)c3c(nc2c1)CCCC3 | inconclusive: 15.8 µM [inhibitor, single point] | –
34 | CC(=O)Nc1cc(N=Cc2ccc(O)cc2O)c(Cl)cc1Cl | inconclusive: 35.5 µM [inhibitor, single point] | –
35 | CCOc1cccc(/C=C/c2ccc3cccc(O)c3n2)c1OC | inconclusive: 12.6 µM [inhibitor, partial curve, poor fit] | –
36 | O=C(COC(=O)Cn1cnc2ccccc2c1=O)NCC12CC3CC(CC(C3)C1)C2 | inconclusive: 0.794 µM [inhibitor, full curve, poor fit] | –
37 | CCN(CC)C(=O)c1sc(NC(=O)c2ccncc2)c(C(=O)OC)c1C | inconclusive: 3.55 µM [inhibitor, partial curve] | –
38 | CCc1cccc(C)c1NC(=S)N(CCN(C)C)C(C)c1ccco1 (stereo not given) | – | inactive: -6.64%
39 | Clc1cccc(Nc2ncnc3c2cnn3-c2ccccc2)c1 | inconclusive: 20 µM [inhibitor, single point] | –
40 | CC(C)n1c(CN(C)Cc2ccccc2)nc2c1c(=O)n(C)c(=O)n2C | – | inactive: 0%
41 | CNc1cc(C(F)(F)F)nc(-c2ccccn2)n1 | – | inactive: -8.63%
42 | Brc1ccccc1OCCCOc1cccc2cccnc12 | – | inactive: -8.93%
43 | CCC(=O)N1CCc2cc(S(=O)(=O)N(CC)c3cccc(C)c3)ccc21 | inconclusive: 5.62 µM [inhibitor, full curve, poor fit] | –
44 | Cc1ccc(C)c(C(C)NC(=S)NCc2ccc(F)cc2)c1 (stereo not given) | inconclusive: 28.2 µM [inhibitor, single point] | –

Row | Structure (SMILES) | Potency | activity, negative = inhibition
45 | CCC(CO)Oc1cc(NC(=O)c2ccc(N)cc2)c2ncn(C(C)C)c2c1 (stereo not given) | inconclusive: 35.5 µM [inhibitor, single point] | –
46 | CCN(CC)CCN1C(=O)c2ccccc2NC1c1ccc(C)cc1 (stereo not given) | inconclusive: 11.2 µM [inhibitor, partial curve, poor fit] | –
47 | O=C(c1cnc(N2CCOCC2)c2ccccc12)N1CCN(c2ccccc2F)CC1 | inconclusive: 0.112 µM [inhibitor, full curve, poor fit] | –
48 | Cn1c(CC(=O)Nc2ccccc2F)nnc1SCC(=O)N1CCOCC1 | inconclusive: 0.112 µM [inhibitor, full curve, poor fit] | –
49 | O=C(OCCF)N1CCN(/[N+]([O-])=N/Oc2ccc([N+](=O)[O-])cc2[N+](=O)[O-])CC1 | active: 8.91 µM | –
50 | Nc1nc(NCCOCCO)nc(N2CCCCCC2)c1[N+](=O)[O-] | – | inactive: 0%
51 | CS(=O)(=O)c1ccc(C(=O)OCc2nnc(-c3ccccc3)o2)cc1[N+](=O)[O-] | inconclusive: 35.5 µM [inhibitor, single point] | –
52 | Cc1ccc(S(=O)(=O)N2C[C@H]3C(=O)C[C@@H](c4ccccc4F)N(S(=O)(=O)c4ccc(C)cc4)[C@H]3C[C@H]2c2ccccc2F)cc1 | inconclusive: 15.8 µM [inhibitor, partial curve, poor fit] | –
53 | CCN(CC)C(=O)c1sc2c(c1C)c(=O)n(CCc1ccccc1)c(=O)n2Cc1cccc(Cl)c1 | inconclusive: 17.8 µM [inhibitor, partial curve, poor fit] | –
54 | Oc1cccc(C2c3[nH]c4ccccc4c3CCN2Cc2cnn(-c3ccccc3)c2)c1 (stereo not given) | inconclusive: 25.1 µM [inhibitor, single point] | –
55 | COc1ccccc1CNC(=O)Nc1nc(C(N)CCc2ccccc2)cs1 (stereo not given) | inconclusive: 35.5 µM [inhibitor, single point] | –
56 | Cc1ccc(C(=O)Oc2oc(-c3ccco3)nc2C=Nc2ccc(Cl)cc2)cc1 | – | inactive: 9.25%
57 | NC(Cc1ccc(C(F)(F)F)cc1)c1csc(Nc2cc(NCc3ccco3)ncn2)n1 (stereo not given) | inconclusive: 35.5 µM [inhibitor, single point] | –
58 | O=C(Nc1cccc(Cl)c1)N1CCC(CO)(CCOc2ccccc2)CC1 | inconclusive: 22.4 µM [inhibitor, single point] | –
59 | O=C(NCCc1ccccc1)c1ccc(CSc2nc3ccncc3n2Cc2cccc(F)c2)cc1 | inconclusive: 8.91 µM [inhibitor, partial curve, poor fit] | –
60 | Cc1ccc(-c2nc(CN3CCN(C(=O)C4CCCO4)CC3)cs2)cc1 (stereo not given) | inconclusive: 35.5 µM [inhibitor, single point] | –
61 | CC(=O)n1cc([C@H]2C=C(C(=O)N3CCN(Cc4ccccc4)CC3)O[C@@H](OCc3ccc(CO)cc3)C2)c2ccccc21 | inconclusive: 14.1 µM [inhibitor, partial curve, poor fit] | –
62 | Fc1ccccc1C1c2cccn2CCN1C(=S)Nc1ccc(Br)cc1 (stereo not given) | active: 22.4 µM | –
63 | O=C1c2cccc3c([N+](=O)[O-])ccc(c23)C(=O)N1c1nccs1 | – | inactive: -16.3%
64 | Cc1ccccc1OCCNc1ccc(C(F)(F)F)cc1[N+](=O)[O-] | inconclusive: 25.1 µM [inhibitor, partial curve, poor fit] | –
65 | CC(C)CN(C(=O)COC(=O)c1ccc2c(c1)OCCO2)c1c(N)n(Cc2ccccc2)c(=O)[nH]c1=O | inconclusive: 6.31 µM [inhibitor, single point] | –

From PubChem BioAssay AID588855 (National Center for Advancing Translational Sciences (NCATS), 2011)
